Reference: US20180066036A1 (APOGENIX, published 2018)

Tests used:
[1] = target: CD40 (native receptor on the surface of human cells) (human, UniProt P25942 21-277); experiment: cell-based or functional assay
[2] = target: T1, human CD40-Fc (Enzo, catalogue number ALX-522-016-C050) (human, UniProt P25942 partial chain); experiment: QCM (Attana A100), human CD40-Fc immobilized, analyte at 1, 5 and 10 µg/ml
T1 construct: Bought reagent; also called immobilized CD40-receptor; not shown: Fc part of the bought fusion protein, not described
Protocol: The equilibrium binding constants (KD) of trivalent constructs of CD40L (e.g.: PROTEIN X) and hexavalent constructs of CD40L (e.g. PROTEIN A, PROTEIN B, and PROTEIN C) to CD40 was calculated based on kinetic binding data (kₒₙ and koff) determined with an automated biosensor system (Attana A100). The A100 allows to investigate molecular interactions in real-time based on the Quartz Crystal Microbalance (QCM) technique.
For this purpose human CD40-Fc, purchased from Enzo (catalogue number: ALX-522-016-C050), was immobilized on the surface of a carboxyl-activated QCM-chip. Trimeric and hexameric CD40L-constructs were used as soluble analyte at concentrations of 1, 5, and 10 μg/ml. Binding (kₒₙ) and dissociation (koff) was analyzed.

B1: PROTEIN B (Fc fusion)
chain: QIAAHVISEASSKTTSVLQWAEKGYYTMSNNLVTLENGKQLTVKRQGLYYIYAQVTFCSNREASSQAPFIASLSLKSPGRFERILLRAANTHSSAKPCGQQSIHLGGVFELQPGASVFVNVTDPSQVSHGTGFTSFGLLKLGSGSGNGSQIAAHVISEASSKTTSVLQWAEKGYYTMSNNLVTLENGKQLTVKRQGLYYIYAQVTFCSNREASSQAPFIASLSLKSPGRFERILLRAANTHSSAKPCGQQSIHLGGVFELQPGASVFVNVTDPSQVSHGTGFTSFGLLKLGSGSGNGSQIAAHVISEASSKTTSVLQWAEKGYYTMSNNLVTLENGKQLTVKRQGLYYIYAQVTFCSNREASSQAPFIASLSLKSPGRFERILLRAANTHSSAKPCGQQSIHLGGVFELQPGASVFVNVTDPSQVSHGTGFTSFGLLKLGSGSSSSSSSSG[gap - human IgG1 Fc with N297S (EU numbers)]SSSSSAWSHPQFEK
notes: also called scCD40L-RBD-Fc; AGP1233
CD86 (MFI), monocytes 3 d, 10 ng/mL [1]: 17 MFI | CD86 (MFI), monocytes 3 d, 100 ng/mL [1]: 39 MFI | CD86 (MFI), monocytes 3 d, 1000 ng/mL [1]: 47 MFI | HLA-DR,DP (MFI), monocytes 3 d, 10 ng/mL [1]: 39 MFI | HLA-DR,DP (MFI), monocytes 3 d, 100 ng/mL [1]: 54 MFI | HLA-DR,DP (MFI), monocytes 3 d, 1000 ng/mL [1]: 55 MFI | Percentage of macrophages that are CD86+, 3 d, 10 ng/mL [1]: 30% | Percentage of macrophages that are CD86+, 3 d, 100 ng/mL [1]: 58% | Percentage of macrophages that are CD86+, 3 d, 1000 ng/mL [1]: 64% | Percentage of macrophages that are CD206+ and CD163+ (M2-like), 3 d, 10 ng/mL [1]: 3% | Percentage of macrophages that are CD206+ and CD163+ (M2-like), 3 d, 100 ng/mL [1]: 2% | Percentage of macrophages that are CD206+ and CD163+ (M2-like), 3 d, 1000 ng/mL [1]: 1% | Percentage of macrophages that are HLA-DR,DP+, 3 d, 10 ng/mL [1]: 20% | Percentage of macrophages that are HLA-DR,DP+, 3 d, 100 ng/mL [1]: 35% | Percentage of macrophages that are HLA-DR,DP+, 3 d, 1000 ng/mL [1]: 37% | Kd [2]: 0.152 nM

B2: PROTEIN A (Fc fusion)
chain: QIAAHVISEASSKTTSVLQWAEKGYYTMSNNLVTLENGKQLTVKRQGLYYIYAQVTFCSNREASSQAPFIASLCLKSPGRFERILLRAANTHSSAKPCGQQSIHLGGVFELQPGASVFVNVTDPSQVSHGTGFTSFGLLKLGSGSGNGSQIAAHVISEASSKTTSVLQWAEKGYYTMSNNLVTLENGKQLTVKRQGLYYIYAQVTFCSNREASSQAPFIASLCLKSPGRFERILLRAANTHSSAKPCGQQSIHLGGVFELQPGASVFVNVTDPSQVSHGTGFTSFGLLKLGSGSGNGSQIAAHVISEASSKTTSVLQWAEKGYYTMSNNLVTLENGKQLTVKRQGLYYIYAQVTFCSNREASSQAPFIASLCLKSPGRFERILLRAANTHSSAKPCGQQSIHLGGVFELQPGASVFVNVTDPSQVSHGTGFTSFGLLKLGSGSSSSSSSSG[gap - human IgG1 Fc with N297S (EU numbers)]SSSSSAWSHPQFEK
notes: Strep-tagged form, detected by anti-StrepTagII in the cell assay; also called hexavalent scCD40L-RBD-FC fusion protein PROTEIN A
Kd [2]: 0.167 nM

B3: PROTEIN C (Fc fusion)
chain: QIAAHVISEASSKTTSVLQWAEKGYYTMSNNLVTLENGKQLTVKRQGLYYIYAQVTFCSNREASSQAPFIASLALKSPGRFERILLRAANTHSSAKPCGQQSIHLGGVFELQPGASVFVNVTDPSQVSHGTGFTSFGLLKLGSGSGNGSQIAAHVISEASSKTTSVLQWAEKGYYTMSNNLVTLENGKQLTVKRQGLYYIYAQVTFCSNREASSQAPFIASLALKSPGRFERILLRAANTHSSAKPCGQQSIHLGGVFELQPGASVFVNVTDPSQVSHGTGFTSFGLLKLGSGSGNGSQIAAHVISEASSKTTSVLQWAEKGYYTMSNNLVTLENGKQLTVKRQGLYYIYAQVTFCSNREASSQAPFIASLALKSPGRFERILLRAANTHSSAKPCGQQSIHLGGVFELQPGASVFVNVTDPSQVSHGTGFTSFGLLKLGSGSSSSSSSSG[gap - human IgG1 Fc with N297S (EU numbers)]SSSSSAWSHPQFEK
Kd [2]: 0.176 nM
